According to the RNAGym collection of RNA variant scans (doi:10.7554/elife.90254):
Read counts are not given, so values of variants with three or more changes are uncertain.

B1: LINE1-mini (parent)
chain: GGCAGAGCUCAACACAGCGUGGCAAAGUGGCUGUGGCUAGACUGCC

Variants of: B1
Experiment: self-cleavage, relative activity (ratio to wild type); higher = more cleavage; in vitro, sequencing; the parent is a self-cleaving ribozyme

Row | Variant | self-cleavage
1 | GGCAGAGCUCAACACAGGGUGGCAAAGUGGCUGUGGCUAGACCGCG | 0.02
2 | GGCAGAGCUUAUCUCAGCGUGGCAAAGUGGCUGUGGCUAGACUGCC | 0.14
3 | AGCAGAGCUCAACACCGAGUGGCAACUUGGCUGUGGCUAGACUGAC | 0.03
4 | GGCAGAGCGCAAUACAGCGUGGCAAAGUUGCUGUGGCAAGACUGCC | 0.02
5 | GGCAGAUCUCAACACAGCGUGUCACAGUGGCUGUGGCUAGACUGCC | 0.06
6 | GGCAGAGCUCAACACAGCGUGGCAAAGUAGCUGUCGCCAGACUGCG | 0
7 | GGCAGAGUUCCACACAGCGUGGCAAAGUGGCUGUUGCUAGACUGCC | 0
8 | GGCAUAGCUCAACACAGCGUGGCAAAGAGGCAGUGGCUAGACUGAC | 0.03
9 | GGCAGAGCUCAUCACAGCGUGUCAAAGUGGCUGUGGUUAGUCUGCC | 0
10 | GGCAGAGCUCAACGCAGCGUGGCAAAGUGGCUUUGGCUAGACUUCC | 0.09
11 | GGCAGAGGUUAACACACCGUGGCAAAGUGGCUGUGGCUAGACUGCC | 0.02
12 | GGCAUAGCUCAACACAGCGUGGCUACGGGGCCGUGGAUAGACUGCC | 0.03
13 | GGCAUAGCCCAACACAGCGUGGCAAAGUGGCUGUGGCUCGACUGCC | 0.03
14 | GGCAGAGCUAAACACCGCGUUGCAAAGUGGCUGUGGGUAGACUGCC | 0.02
15 | GGCAGAGCUCAACACUGCGUGAAAAAGUGGUUGUGGCUAGACUGCC | 0.01
16 | GGCAGAGCUCAACACAGCGUGGUAAAGUGGCUGUGGCUAGAAUCCC | 0.01
17 | GGAAGAGCUCAACACAGCGUGCCAAUGUGGCUGUGGCUAGACUGCC | 0.11
18 | GGCAGGGCUCAUCUCGGCGUGGCAAAGUGGCUGUGGCUAGACUGAC | 0
19 | GGCAGAGCUCAACAGAGCGUGUCAAAGUGGCUCUGGCUAGACUGCA | 0.35
20 | GGCAGAGCUCAACACAGCGUGGGAAAGUUGCUGUGGCUAGACUGAC | 0.38
21 | GGCAGAGCUCAAGGCAGCGUGGCAAAGUGGCUGUGGGUAGACUGCC | 0
22 | GGCUCAGCUUAACACAGUUUAGCAAAGUGGCUGUGGUUAGGCUGCC | 0.01
23 | GGCAGAGCUUCACACAGCGUGGCACAGUGGCUGUGGCUAGACUGCC | 0.03

Row | Variant | self-cleavage
24 | GGCAGAGCUCAACACAGCGUGGCAAACUGGCUGUGGCUAGACAGAC | 0.07
25 | GGCAGCGCUCAACAGAGCAUGGCAAAGUGGCUGUGGCUAGACUGCC | 0.06
26 | GGCAGAGCACUACACAGCGUGGCAAAGUGUCUGUGGCUAGACUGCC | 0.02
27 | GGCAGAGUUCAACACAGCGUGGCUAAGUGGCUGUCGCUAGACUGCC | 0.12
28 | GGCAGAUCUCAAUACAGCGUGGCAAAUUGGCUCUGGUUAGACUGCC | 0.02
29 | GGCAGAGCUCAACACAGCGGGACAAAGUGCCUGUGGCUAUACUGCU | 0.03
30 | GGCAAAGCUCAACACAGCGCGGCACAGUGGCUGUGGCUAGACUGCC | 0.04
31 | GGCAGAGCUCAACACAGGGUGGCAAAGUGCCUGUGGCUAGACUGCG | 1.46
32 | GGCACAGCUCAGCACAGCGUGGCAAAGGGGCUGUGGCUAGACUGCC | 0
33 | GGCAGAGCUCAAGUCUGCGUGGCAUAGCGGUUGUGGCUAGACUGCC | 0.04
34 | GGCGGAUCUAAACACACCGUGGCAAAGUGGCUGUGGCUAGACUUCC | 0.03
35 | GGCAGAGCUCAACCCAGCGAGGCAAAGUGGCUGUGGCUAGACUGCA | 0.13
36 | UGCAGAGCUCAACACAGCGCGGCAAAUUGGCUGUGGCUAGACUGCC | 0.08
37 | GGCAGAACUCGACACAGCGUGGCGAAGUGGCUGUGGCUAGACUGCC | 0.01
38 | UGCAGAGCUCAACACAGCAUGUCAAAGUGGCCGUGGCUAGACUGCC | 0.11
39 | GGCACAGCUCAACACAGCUUGGCAAAGUGGCUGUUGCUAGACUGCC | 0.04
40 | GGCAGAGCUCGACAUAGCGUGGCAAAGUGGCUUUGGCUAGACUGCC | 0.08
41 | GGCCGAGUUCAACGCAGCGUGGCAGAGUCGCUGUGGCUAGACUGCC | 0.06
42 | GGCAGUGCUCAACACAGUGUGGCAAAGUGGCUGUGUCUAGACUGCC | 0.15
43 | GGCAGAGCUCAACACCGCAUGGCAAAGUGGCUGUGGCUAGACUGGC | 0.04
44 | GGCGGAGCUCAACACAGCGUGGCAACGUGGCGGUGGCUAGACUGCC | 0.3
45 | GGCAGAACUCAACACAGCGUCGCAAAUUUGCUGUGGCUACACUACC | 0.02
46 | GGCAGGGCUCAACACAGCGUGGGAAAGUGGCUGUGGCUAGACCGCC | 0.02

Row | Variant | self-cleavage
47 | GGCAGAACUAAACACAGCGUGGCAAAGUGGCUGUGGCUAGACUGCA | 0.02
48 | GGCAUAUCUCAACACAGCGUGGCAAAGUGGCUGUGGCUAGACUCCC | 0.16
49 | GGCAGAGCUCAACACAGCGUGGCAAAGUGGAUGUGGCUAUACUGCA | 0.01
50 | GGCAGAGCUCAACACAGAGUGGGAAAGUGGUUGUGACUAGACUGCC | 0.02
51 | GGCAGAGCUCAACACAGCGUGGCAAAGAGGCUGUGUCUAGAUUGCC | 0.07
52 | GGCAGAGCCCAACACAGCGUGGCAAAGUGGGUAUGGCUAGACUGCC | 0.03
53 | GGCAGAGCUCAAAACAGCGUGGCAAAGUGGCUGUGGCUAUACUGUC | 0.05
54 | GGGAGAGCUCAACACAGCGUGGCAGAGUGGCUGUGUCUAGACUGCC | 0.06
55 | CGCAGAGCUCAACACAGCGUUGCAAAGAGGCUGUGGCUGGACUGCC | 0.08
56 | GGCGGAGCUCAACACAGCGUGGCAAAAUGGCUGUGGCUAGACUGCA | 1.43
57 | GGCAGGGUUCAACACAUCGUGGCAAAGUGGCUGAGGCUCGACUGCC | 0.14
58 | GGCAGAGCUGAACACAGGGUUGCAACGUGGCUGUGGCUAGACAGGC | 0.01
59 | GGCAGAGCUCAAUACAGCGUGGCAAAGUGGCUCUGGCUAGCCUUCC | 0.05
60 | GGCAGAGCUCAACACAGCAUGGCAAACUGGGUGUGGCGAGACUGCC | 0
61 | GACAGAGUUCAACACAGCGUGGCGAAGUGGCUGUGGCUAGACUUGC | 0.13
62 | GCCAGGGCCCAACACACCGUGGCAAAGUGGCUGUGGCUAGACUGCC | 0.02
63 | GGCAGAGCUCAACACAGCAUGGCAAAGUGGUUGUUGCUAGACCGCC | 0.02
64 | GGCAGAGCGCAACGCAGCGUGGCAAAGUGGCUGUGGCUAUACUGCC | 0.18
65 | GGCAGAGCUCAACACAGCGUGGAAAAGUGGCUGUCGCUAGAAUGCC | 0.1
66 | GGCAGAGCUCAACACAGCGGGGCAACGGGGCUGUGGCUAGGCUGAU | 0
67 | GGCAGAGCUCAGCACACCGUAGCAAAGUGGCUGUGGCUAGACUGCC | 0.01
68 | GGCAGAGCUCCACACAACGUGGCAAAGUGGCUGUGGCGAGGCUGCU | 0.01
69 | GGCAGAGAUCACCACAGCGUGGAAAAGUGGCUGUGGCUAGACUGCC | 0.01

Row | Variant | self-cleavage
70 | GGCAGAGCACAACACCGCGGGGCAAAGUGGCUGUGGCUAGACUGCC | 0.15
71 | GGCAGAGCUCAACAAACCGUGGCAAAGUGGCUGUGGCUAGACUGGC | 0.12
72 | GUCCGAGUUCAACACAGCGUGGCAAAGUGGCUGUGGUUAGACUGCC | 0.27
73 | CGAAGAGCUCAACACAGAUUGGCAAAGUGGCUGUGGCUAGACAGCC | 0.03
74 | GUCAGCGAGCAACACAGCGUGGUAAAGUGGCUGUGGUUAGAUAGCC | 0.04
75 | GUCAGAGCUCAACACAGUGUGGCAAAGUGACUAUGGCUAGACUGCC | 0.01
76 | GGCAGAGCUCAACACAGCGUGGCAAAGUGGCUGCGGCUACAGUGGC | 0.11
77 | GGCAGAGUACAACACAGCGUGGCAAGGUGGCUGCGGCUACACUGCC | 0.11
78 | GGCAGUGCUCAACACAGCGUUGCAAAGUGGCUGUGGCUAGACUGCG | 0.77
79 | GGCAUAGCUCAACACAUCGUGGCAAAGUGUCUGUGGCUAGACUGCC | 0.05
80 | GGCAGAGCUCAACACAGCGUGGCAAAGUGAGUGUGGCAUGACUGCC | 0.08
81 | CGCAGAGAUCAACACUGCGUGGCAAAGUGGCUGUGGGUAGACAGCC | 0.02
82 | GGCAGAGUUCAACAUAGUGUGGCAAAUUGGCUGUGGCUAGACUGCC | 0.07
83 | GGCAGAGCUCAACACAGCGUUGCAAAGGGGCGGUGGCUAGACUGCC | 0.18
84 | UGCAGAGCUCAACAUAGCGCGGCAGAUUAGCUUUGUCUAGACCGCC | 0.02
85 | GGCAGAGAUCAACACAGCGUGGCAAAAUGGCUGUGGCUAGAUUGCC | 0.07
86 | GGCAGCGCUCAACACAGCGUGGCAAAGUGGUUCUGGCGAGACUCCC | 0.03
87 | GGCCUAGUUCAACACAGCGUGGCAAAGUGGCUGUGGCUAGACUGCC | 0.23
88 | GGCAGAGCUCGACACAGCCUCGCAAAGUGGCUGUGGCUAGACUGCC | 0.01
89 | AGCAGAGCUCAACACAGCGUGGCAAAGUGGCUGUGGAUACACUGCC | 0.04
90 | GGCAUAGGUCAACACAGCGAGGCAAAGUGGCUAUGGCUUGCCUGCC | 0.02
91 | GACAGAGCUCAACACAGCGUGGCAAAGUGGCUGCGGCUAGAUUGCC | 0.03
92 | GGCAGAGAUCCAAACAGCGUGGCAAAGUGGCUGUGGCUAGACUGCC | 0.01

Row | Variant | self-cleavage
93 | GGCAGAGCUCAACACAGCAUGGCAAAGUGGCAGUGGAUAGAUUGCC | 0.05
94 | GGCAGAGCUCAAGACAACGUGCAAAAGUGGCUUUGGCUCGACUGCC | 0
95 | GGCAGGGCUCAACACAGCGUGGUAAAAUGGCUGUGGCUAGACUGCC | 0.13
96 | GGCAGAGCUCAACACAGCGCGGCAAAGUGGCUGUCGCUAGCCUGCC | 0.04
97 | GGCAGACCUGUACACAACGUGGCAAAGUGGCCGUUGCCAGACUGCC | 0.02
98 | GGCAGCGCUCAACACAGCGUGAUAAAGUGGCUGUGGCCAGACUGCC | 0.39
99 | GGCAGAGCUCAACAUAGCGUGGCACACUGGCUGUGGCUAGGCUGCC | 0.12
100 | GGCAGAGCUCUAUACGGCGUGGCAAAGUGGCUGUGGCUAGACUGCC | 0
101 | GGCAGAGCUCAACAAAGCGUGGCAAUGUGGCUGAGGCUAGACUUCC | 0.01
102 | GGCAGCGCUCCCCACAGCGUCGCAAAGUGUCUGUGGCUAGACUGCC | 0.03
103 | GGCAGAGGUCUACACAGCUUGGCAAAGUGGCUGGGGCUAUACUGCC | 0.02
104 | GGCAAAGCUCAACACAGCGUGGCAAAGUGGCUGUGGCUGGACUGCA | 0.07
105 | GGCACAGCUCAACACAGCGUGGAAUAGUGGAUGUGGCUAGACUGCC | 0.05
106 | GGCAGAGCUCAAUACAGUGUGGCAAAGUCUCUGUGGCUAGACUGCC | 0.04
107 | GGCACAGCACAACACAGCGUAGCAAAGUGGCUGUGGCUAGACUGCC | 0.03
108 | GGCAGAGUCCAACACAGCGUCGCAAAGUGGCUGUGGCUAGACUGCC | 0.01
109 | GGUAGAGAUCAACACAGCGUGGCAAAGUGGCUGUAGCUACACUGCC | 0.03
110 | GGCAGAGCUCAACACAGUGUGGCAAGGUGGCUGAGGCUAGACUGCC | 0.03
111 | GGGAGAGCCCAACACAGCGUGGCAAAGUAGCUGUGGCUAGACAGCC | 0.01
112 | GGCAGAGCUCAAUACAACGUGGCAAAGUGGCUGUGGCUAUAAUGCC | 0.11
